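Each compound was tested at five concentrations against cells in 96-well plates for 48 hours. The concentration for 50% growth inhibition is given as GI50.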 Activity calls are given as the source filed them. Rule as the data show it: active = GI50 up to about 1.1 µM and inactive = higher.
The compounds below were run on NCI-H322M (assay: NCI tumour cell line growth inhibition, 48 h).
With `Cc1nc(-n2nc(-c3ccccc3)cc2-c2ccccc2)sc1C(=O)/C=C/c1ccc(Cl)cc1` the GI50 was inactive: 15.9 µM.
In the case of `NS(=O)(=O)c1ccc(NC(=O)Nc2cccc3ccccc23)cc1`, the GI50 is reported as inactive: 45.8 µM.
For `CC(C)CNc1nc(N)nc(O)c1NC=O`, the GI50 was inactive: > 100 µM.
In the case of `COc1cc(C(c2cc3c(cc2O)OCO3)N2CCCC2)cc(OC)c1OC` (configuration not stated), the GI50 is reported as inactive: 32.8 µM.
For `Cc1nc(O)c(O)c(CN2CCCCC2)n1`, the GI50 was inactive: > 100 µM.
In the case of `CCN(CC)CCn1ncc2c(N)ncnc21`, the GI50 is reported as inactive: > 100 µM.
For `O=C(CC(O)(c1ccccc1)c1ccc(Cl)cc1)NC(=O)c1ccccc1O` (configuration not stated), the GI50 was inactive: 5.19 µM.
For `Cc1ccccc1NC(=S)N/N=C1\C(=O)Nc2ccccc21`, the GI50 was inactive: > 100 µM.
In the case of `Cc1nc2sccn2c1/C=C1/C(=O)Nc2cccc(Cl)c21`, the GI50 is reported as inactive: > 100 µM.
In the case of `Nc1nc(N)c(-c2ccccc2)c(CCC(=O)Nc2ccc(Cl)cc2)n1`, the GI50 is reported as inactive: > 100 µM.
With `O=C1/C(=N/c2ccccc2)Oc2cc(O)ccc21` the GI50 was inactive: > 100 µM.
With `CCCCOC(=O)c1cc(C(=CCC[C@H]2CC[C@@]3(C)[C@@H](CC[C@@H]4[C@@H]3CC[C@]3(C)[C@@H](C(C)CCCC(C)C)CC[C@@H]43)C2)c2cc(Cl)c(O)c(C(=O)OCCCC)c2)cc(Cl)c1O` (some centres not stated) the GI50 was inactive: > 50 µM.
With `CCCOC(=O)C1C2CCC(O2)C1C(=O)O` (configuration not stated) the GI50 was inactive: 53.6 µM.
With `NCCCCC(=O)c1cccnc1` the GI50 was inactive: > 100 µM.
With `COC(=O)C1CCC(=O)N1C(c1cc(OC)c(OC)c(OC)c1)c1cccc2ccccc12` (configuration not stated) the GI50 was inactive: > 100 µM.
In the case of `Cc1cc2c(cc1-c1cc3c(cc1C)C(C(C)C)=C(O)C(=O)/C3=C\Nc1c(C)n(C)n(-c3ccccc3)c1=O)/C(=C/Nc1c(C)n(C)n(-c3ccccc3)c1=O)C(=O)C(O)=C2C(C)C`, the GI50 is reported as inactive: > 100 µM.
For `CCOC(=O)C1=C(C)N(Cc2ccccc2)C(C)=C(C(=O)OCC)C1c1ccccc1O`, the GI50 was inactive: 95.9 µM.
In the case of `COc1cc2c(cc1OC)C(Cl)C(c1ccc(Br)cc1)=C2Cl` (configuration not stated), the GI50 is reported as inactive: 15.6 µM.
In the case of `O=c1c(Br)cc2nc3ccccc3sc-2c1Br`, the GI50 is reported as inactive: > 100 µM.
With `CCOC(=O)CCC(C(=O)OCC)n1nnc2ccc(Nc3c(C)[n+]([O-])c4ccc(Cl)cc4[n+]3[O-])cc21` (configuration not stated) the GI50 was inactive: 64.9 µM.
For `COc1cc(/C=C\C(=O)O)ccc1OCc1ccccc1`, the GI50 was inactive: > 100 µM.
With `CCc1cccc(C)c1NC(=O)CCc1nnc2s/c(=C\c3cccc4ccccc34)c(=O)n12` the GI50 was inactive: > 100 µM.
In the case of `COC(=O)NC(C(F)(F)F)(C(F)(F)F)P1(=O)OCCCO1`, the GI50 is reported as inactive: 53.5 µM.
`O=c1[nH]c(Cc2ccccc2)nc2c1sc1nc3ccccc3n12` was tested, and the GI50 was inactive: > 100 µM.
`Cc1cc2nc3c(C#N)c4c(c(Nc5ccc(F)cc5)n3c2cc1C)CCC4` was tested, and the GI50 was inactive: > 100 µM.
With `CCCCCCNC(=O)c1cnc(Cl)cn1` the GI50 was inactive: 3.33 µM.
In the case of `N=c1oc2ccccc2cc1C(=O)Nc1cccc2ccccc12`, the GI50 is reported as inactive: > 100 µM.
In the case of `COc1ccc(CN2C(=O)C(Cc3cc(OC)c(OC)c(C)c3OC)NC(=O)/C2=C/c2cc(OC)c(OC)c(C)c2OC)cc1` (configuration not stated), the GI50 is reported as inactive: > 100 µM.
`O=S(=O)(c1ccccc1)C1CC(c2nc3ccccc3[nH]2)=NO1` (configuration not stated) was tested, and the GI50 was inactive: > 100 µM.
`N#Cc1c2c(c(Nc3ccc(F)cc3)n3c1nc1ccccc13)CCC2` was tested, and the GI50 was inactive: 10.1 µM.
In the case of `CCOC(=O)C1(Cc2ccc3c(c2)CCC3)Cc2cc3c(cc2C1)CCC3`, the GI50 is reported as inactive: 42 µM.
In the case of `COc1cc2oc(=O)cc(C)c2cc1[N+](=O)[O-]`, the GI50 is reported as inactive: > 100 µM.
For `COC(=O)c1c(C)cccc1C1CN=NC12Cc1cccc(C)c1C2=O` (configuration not stated), the GI50 was inactive: 44 µM.
With `CNC(=O)OCC1=C(COC(=O)NC)CN(c2ccccc2)C1` the GI50 was inactive: > 100 µM.
For `CN1C(C)(C)CC(=O)C(Br)C1(C)C` (configuration not stated), the GI50 was inactive: > 100 µM.
With `CC1=C(C#N)C(=O)N(/N=C/c2ccc(Cl)cc2)C(=O)/C1=c1\o/c(=C2/C(=O)N(/N=C/c3ccc(Cl)cc3)C(=O)C(C#N)=C2C)c2nccnc12` the GI50 was inactive: > 100 µM.
In the case of `CCc1c[n+]2c(cc1C1=CN3c4ccccc4[C@]45CCN6C/C(=C/CO)[C@H](C[C@H]64)[C@@H]([C@@H]1O)[C@H]35)-c1[nH]c3ccccc3c1CC2`, the GI50 is reported as inactive: > 50 µM.
For `CCC1(c2ccc(N3C(=O)c4cccc5cc([N+](=O)[O-])cc(c45)C3=O)cc2)CCC(=O)NC1=O` (configuration not stated), the GI50 was inactive: > 44.4 µM.
For `COC(=O)C(Cc1c[nH]c2ccccc12)NC(=O)C(Cc1c[nH]c2ccccc12)NC(=O)OCc1ccccc1` (configuration not stated), the GI50 was inactive: 20 µM.
For `C[C@]12OC[C@H](c3ccccc3)N1C(=O)C1[C@H]2CC12SCCS2` (some centres not stated), the GI50 was inactive: > 100 µM.
In the case of `Cc1nn(C)c2nc3ccc(Cl)cc3c(-c3ccccc3)c12`, the GI50 is reported as inactive: > 100 µM.
With `COc1cc2c(c(O)c1OC)C(=O)C(Cc1ccc(O)cc1)CO2` (configuration not stated) the GI50 was inactive: 78.7 µM.
For `CCCCC(C)(C/C=C/[C@@H]1[C@@H](C(O)CCCCCC(=O)OC)C(=O)C[C@H]1O[Si](C)(C)C(C)(C)C)O[Si](C)(C)C` (some centres not stated), the GI50 was inactive: > 100 µM.
With `COc1ccc(C(SC2C(O)C(CO)OC2n2ccc(N)nc2=O)(c2ccccc2)c2ccc(OC)cc2)cc1` (configuration not stated) the GI50 was inactive: 12.2 µM.
`COc1ccc(Cl)cc1NC(=O)O/N=C(\Cl)C(C)C` was tested, and the GI50 was inactive: 18.4 µM.
For `c1ccc(NNN2NC(c3ccccc3)C2c2ccccc2)cc1` (configuration not stated), the GI50 was inactive: > 100 µM.
With `Oc1ccccc1/C=N/c1ccc(-c2nc3ccccc3[nH]2)cc1` the GI50 was inactive: 74.5 µM.
`Cc1cccc2[nH]c3c(c(O)cc4[nH]c5cccc(C)c5c(=O)c43)c(=O)c12` was tested, and the GI50 was inactive: > 10 µM.
`CCCCCCCCCCCCCCCCNc1nc(=O)n(C2OC(C)C(O)C2O)cc1F` (configuration not stated) was tested, and the GI50 was inactive: 18.2 µM.
For `CCCSc1ccc2[nH]c(N3C(=O)/C(=C/c4ccco4)N=C3c3ccccc3)cc2c1`, the GI50 was inactive: 19.3 µM.
For `COc1cc2c(cc1OC)[Se]c1cc(OC)c(OC)cc1[Se]2`, the GI50 was inactive: > 10 µM.
`NC(=O)Nc1c(Cl)cc(S(N)(=O)=O)cc1Cl` was tested, and the GI50 was inactive: > 100 µM.
With `O=C(CCc1ccc(O)c(O)c1)NCCc1cc(O)cc(OCc2ccccc2)c1` the GI50 was inactive: 34.1 µM.
In the case of `CC(=O)CC(=O)CCCC(=O)Nc1ccc(Cl)cc1C`, the GI50 is reported as inactive: > 100 µM.
`CN(C)CCNC(=O)c1ccc(NC(=O)c2nc([N+](=O)[O-])cn2C)cc1` was tested, and the GI50 was inactive: > 100 µM.
`CC(C)C(Sc1nc(N)nc2nc[nH]c12)C(=O)O` (configuration not stated) was tested, and the GI50 was inactive: > 100 µM.
`COc1ccc(C2c3cc4c(cc3OC(NCCO)C2C)OCO4)cc1` (configuration not stated) was tested, and the GI50 was inactive: 28.9 µM.
In the case of `CSc1nc(SC)c2c(C)cn(COCCOC(=O)c3ccccc3)c2n1`, the GI50 is reported as inactive: > 100 µM.
With `C=C1c2cc3c(cc2CC12Cc1cc4c(cc1C2=O)CCC4)CCC3` (configuration not stated) the GI50 was inactive: > 100 µM.
`CNn1c(-c2ccc(C)cc2)n[nH]c1=O` was tested, and the GI50 was inactive: > 100 µM.
`Cc1ncc([N+](=O)[O-])n1CCNCCCCn1ccnc1[N+](=O)[O-]` was tested, and the GI50 was inactive: > 100 µM.
For `CC1(C)OC(=O)CC12CCN(Cc1ccccc1)CC2`, the GI50 was inactive: > 100 µM.
`O=Cc1[nH]c(=O)[nH]c(=O)c1C(=O)O` was tested, and the GI50 was inactive: > 100 µM.
With `O=C(O)CCC(NC(=O)c1ccc(Nc2cnc3ccc(C(F)(F)F)cc3n2)cc1)C(=O)O` (configuration not stated) the GI50 was inactive: > 100 µM.
With `CCOP(=O)(/C=C\n1ccc(N)nc1=O)OCC` the GI50 was inactive: > 100 µM.
`COC(=O)CN(CC(O)C(NC(C)=O)C(O)C=O)C(=O)OCc1ccccc1` (configuration not stated) was tested, and the GI50 was inactive: > 100 µM.
In the case of `CCOC(=O)/C(=C\NC(C)(C)C)c1nc2ccccc2[nH]1`, the GI50 is reported as inactive: 18.3 µM.
`O=c1cc(-c2ccc(O)cc2)n(C2CC2)c2ccccc12` was tested, and the GI50 was inactive: 2.81 µM.
In the case of `CCOP(=O)(OCC)/C(C#N)=C/c1cccn1CC(C)C`, the GI50 is reported as inactive: > 100 µM.
For `COC(=O)/C(C#N)=C(/NCc1ccccc1)Nc1ccccc1`, the GI50 was inactive: > 100 µM.
With `N=C(N)NS(=O)(=O)c1ccc(Nc2c3ccccc3nc3c(C(=O)Nc4ccc(S(N)(=O)=O)cc4)ccc(Cl)c23)cc1` the GI50 was inactive: > 100 µM.
`COc1cc(OC)c(/C=C2\N=C(C)N(Nc3nnc(NN4C(=O)/C(=C/c5c(OC)cc(OC)cc5OC)N=C4C)c4ccccc34)C2=O)c(OC)c1` was tested, and the GI50 was inactive: > 100 µM.
`COC(=O)c1ccc2c(c1)CC1(C2)Cc2cc3c(cc2C1=O)CCC3` (configuration not stated) was tested, and the GI50 was inactive: 27 µM.
In the case of `CC(=O)OC1/C(=C/c2ccc([N+](=O)[O-])cc2)C[C@H]2[C@@H]3CC=C4C[C@@H](OC(C)=O)CC[C@]4(C)[C@H]3CC[C@]12C` (some centres not stated), the GI50 is reported as inactive: > 100 µM.
`COc1ccc2c(c1)[nH]c1c(/C=C/c3ccccc3)nccc12` was tested, and the GI50 was inactive: 15.1 µM.
In the case of `Cc1c(-c2ccccc2)c(C#N)c2nnn(C)c(=O)n12`, the GI50 is reported as inactive: > 100 µM.
For `C/C=C1/CCC2c3[nH]c4ccccc4c3CCN2C1` (configuration not stated), the GI50 was inactive: > 100 µM.
In the case of `CC(C)(C)OC(=O)NC(Cc1ccc(O)cn1)C(=O)O` (configuration not stated), the GI50 is reported as inactive: > 100 µM.
For `O=C(NC(Cc1ccccc1)(Cc1ccc(O)cn1)C(=O)O)c1ccccc1` (configuration not stated), the GI50 was inactive: > 100 µM.
With `O=C1C2CCC(C2)C12CC1(c3ccccc3)C(=O)c3ccccc3N1O2` (configuration not stated) the GI50 was inactive: > 100 µM.
With `CCOC(=O)[C@]12C3C=CC(C3)C1C(=O)C1OC12` (some centres not stated) the GI50 was inactive: > 100 µM.
`COc1ccc(/C=N/c2nc3cc4sc(/N=C/c5ccc(OC)cc5)nc4cc3s2)cc1` was tested, and the GI50 was inactive: 65.6 µM.
In the case of `CCOC(=O)c1sc(N/N=C2\NC(=O)/C(=C/c3ccc([N+](=O)[O-])cc3)S2)nc1C`, the GI50 is reported as inactive: 26.2 µM.
With `Oc1ccc(O)c(Sc2nnc(CCCCCCCCc3nnc(Sc4cc(O)ccc4O)o3)o2)c1` the GI50 was inactive: > 100 µM.
With `O/N=N/c1ccc(Sc2ccc(/N=N/O)cn2)nc1` the GI50 was inactive: > 100 µM.
`C=C1C(=O)C=C2C=C3C(=O)C(C)(C)C[C@]3(O)C12C` (some centres not stated) was tested, and the GI50 was inactive: 19.3 µM.
In the case of `CCOC(=O)Cc1cc(=O)[nH]c(-n2[nH]c(C)c(CCO)c2=O)n1`, the GI50 is reported as inactive: > 100 µM.
`Clc1ccc(C(c2ccc(Cl)cc2)c2ccccn2)cc1` was tested, and the GI50 was inactive: 21.9 µM.
`O=c1oc2cccnc2n1CCN1CCN(c2ccc(Oc3ccccc3)cc2)CC1` was tested, and the GI50 was inactive: > 100 µM.
In the case of `Oc1ccc(/C=N/c2nccs2)c(O)c1`, the GI50 is reported as inactive: > 100 µM.
In the case of `Cc1ccc2c(c1)NC(=O)CC(c1ccccc1)=N2`, the GI50 is reported as inactive: > 100 µM.
`Cc1ccc(S(=O)(=O)N/C(=N\O)Nc2ccc(Cl)c(Cl)c2)cc1` was tested, and the GI50 was inactive: 2.12 µM.

From ChEMBL document CHEMBL1201862, “PubChem BioAssay data set” (2004)
